# Reference: patent US9486506B2 (Novo Nordisk A/S, priority 2011, dated 2016)
# For at least one compound, name, drawing or mass did not settle the structure. Numbered stars: 1 amine (or outer) side, 2 acyl side, 3 side chain; on linkers, the order of the positions; unused ones are H or OH. Side chains are listed from the residue outwards. Peptide text beside a SMILES is read from it. * marks the point of attachment. X1 = O=C(CCCCCCCCCCCCCCCc1nnn[nH]1)NS(=O)(=O)CCCC(=O)*; C18 diacid = O=C(O)CCCCCCCCCCCCCCCCC(=O)*; C16 diacid = O=C(O)CCCCCCCCCCCCCCC(=O)*; γGlu = O=C(O)[C@H](CCC(=O)[*:2])N[*:1]; AEEA = NCCOCCOCC(=O)O
# Experiment: Assay (II) ThT fibrillation assay for physical stability
# Assay type: physicochemical
# Details: pH 7.5
row,SMILES,ThT assay [Lagtime]
1,"CC(C)C[C@H](NC(=O)[C@H](CC(=O)O)NC(=O)[C@H](CC(C)C)NC(=O)[C@H](Cc1ccc(O)cc1)NC(=O)[C@H](CCCNC(=N)N)NC(=O)[C@H](CO)NC(=O)[C@H](Cc1ccc(O)cc1)NC(=O)[C@H](CC(=O)O)NC(=O)[C@H](CO)NC(=O)[C@@H](NC(=O)[C@H](Cc1ccccc1)NC(=O)[C@@H](NC(=O)CNC(=O)[C@H](CCC(N)=O)NC(=O)[C@H](CO)NC(=O)[C@@H](N)Cc1c[nH]cn1)[C@@H](C)O)[C@@H](C)O)C(=O)N[C@@H](CCCNC(=N)N)C(=O)N[C@@H](CCCNC(=N)N)C(=O)N[C@@H](C)C(=O)N[C@@H](CCC(N)=O)C(=O)N[C@@H](CC(=O)O)C(=O)N[C@@H](Cc1ccccc1)C(=O)N[C@H](C(=O)N[C@@H](CCCCNC(=O)CC[C@H](NC(=O)CC[C@H](NC(=O)COCCOCCNC(=O)COCCOCCNC(=O)CCCS(=O)(=O)NC(=O)CCCCCCCCCCCCCCCc1nnn[nH]1)C(=O)O)C(=O)O)C(=O)N[C@@H](Cc1c[nH]c2ccccc12)C(=O)N[C@@H](CC(C)C)C(=O)N[C@@H](CC(C)C)C(=O)N[C@@H](CO)C(=O)N[C@H](C(=O)O)[C@@H](C)O)C(C)C [Example 68, N^ε24-[(4S)-4-carboxy-4-[[(4S)-4-carboxy-4-[[2-[2-[2-[[2-[2-[2-[4-[16-(1H-tetrazol-5-yl)hexadecanoylsulfannoyl]butanoylamino]ethoxy]ethoxy]acetyl]amino]ethoxy]ethoxy]acetyl]amino]butanoyl]amino]butanoyl]-[Arg12, Leu16, Lys24, Leu27,Ser28]-Glucagon] (H-HSQGTFTSDYSRYLDLRRAQDFVK([γGlu-γGlu-AEEA-AEEA-X1])WLLST-OH)",13.7 h
2,"CC[C@H](C)[C@H](NC(=O)[C@H](CC(=O)O)NC(=O)[C@H](CC(C)C)NC(=O)[C@H](Cc1ccc(O)cc1)NC(=O)[C@H](CCCNC(=N)N)NC(=O)[C@H](CO)NC(=O)[C@H](Cc1ccc(O)cc1)NC(=O)[C@H](CC(=O)O)NC(=O)[C@H](CO)NC(=O)[C@@H](NC(=O)[C@H](Cc1ccccc1)NC(=O)[C@@H](NC(=O)CNC(=O)[C@H](CCC(N)=O)NC(=O)[C@H](CO)NC(=O)[C@@H](N)Cc1c[nH]cn1)[C@@H](C)O)[C@@H](C)O)C(=O)N[C@@H](CCCNC(=N)N)C(=O)N[C@@H](CCCNC(=N)N)C(=O)N[C@@H](C)C(=O)N[C@@H](CCC(N)=O)C(=O)N[C@@H](CCC(=O)O)C(=O)N[C@@H](Cc1ccccc1)C(=O)N[C@H](C(=O)N[C@@H](CCCCNC(=O)CC[C@H](NC(=O)CC[C@H](NC(=O)COCCOCCNC(=O)COCCOCCNC(=O)CC[C@H](NC(=O)CCCCCCCCCCCCCCCCC(=O)O)C(=O)O)C(=O)O)C(=O)O)C(=O)N[C@@H](Cc1c[nH]c2ccccc12)C(=O)N[C@@H](CC(C)C)C(=O)N[C@@H](CCC(=O)O)C(=O)N[C@@H](CO)C(=O)N[C@H](C(=O)O)[C@@H](C)O)C(C)C [Example 53, N^ε24-[(4S)-4-carboxy-4-[[(4S)-4-carboxy-4-[[2-[2-[2-[[2-[2-[2-[[(4S)-4-carboxy-4-(17-carboxyheptadecanoylamino)butanoyl]amino]ethoxy]ethoxy]acetyl]amino]ethoxy]ethoxy]acetyl]amino]butanoyl]amino]butanoyl]-[Arg12,Ile16,Glu21,Lys24,Glu27,Ser28]-Glucagon] (H-HSQGTFTSDYSRYLDIRRAQEFVK([γGlu-γGlu-AEEA-AEEA-γGlu-C18 diacid])WLEST-OH)",3.7 h
3,"CC(C)C[C@H](NC(=O)[C@H](Cc1c[nH]c2ccccc12)NC(=O)[C@H](CCCCNC(=O)CC[C@H](NC(=O)COCCOCCNC(=O)COCCOCCNC(=O)CC[C@H](NC(=O)CC[C@H](NC(=O)CCCCCCCCCCCCCCCCC(=O)O)C(=O)O)C(=O)O)C(=O)O)NC(=O)[C@@H](NC(=O)[C@H](Cc1ccccc1)NC(=O)[C@H](CCC(=O)O)NC(=O)[C@H](CCC(N)=O)NC(=O)[C@H](C)NC(=O)[C@H](CCCNC(=N)N)NC(=O)[C@H](CCCNC(=N)N)NC(=O)[C@@H](NC(=O)[C@H](CC(=O)O)NC(=O)[C@H](CC(C)C)NC(=O)[C@H](Cc1ccc(O)cc1)NC(=O)[C@H](CCCNC(=N)N)NC(=O)[C@H](CO)NC(=O)[C@@H](NC(=O)[C@H](CC(=O)O)NC(=O)[C@H](CO)NC(=O)[C@@H](NC(=O)[C@H](Cc1ccccc1)NC(=O)[C@@H](NC(=O)CNC(=O)[C@H](CCC(N)=O)NC(=O)[C@H](CO)NC(=O)[C@@H](N)Cc1c[nH]cn1)[C@@H](C)O)[C@@H](C)O)C(C)C)[C@@H](C)O)C(C)C)C(=O)N[C@@H](CC(C)C)C(=O)N[C@@H](CO)C(=O)N[C@H](C(=O)O)[C@@H](C)O [Example 64, N^ε24-[(4S)-4-carboxy-4-[[2-[2-[2-[[2-[2-[2-[[(4S)-4-carboxy-4-[[(4S)-4-carboxy-4-(17-carboxyheptadecanoylamino)butanoyl]amino]butanoyl]amino]ethoxy]ethoxy]acetyl]amino]ethoxy]ethoxy]acetyl]amino]butanoyl]-[Val10,Arg12,Thr16,Glu21,Lys24,Leu27,Ser28]-Glucagon] (H-HSQGTFTSDVSRYLDTRRAQEFVK([γGlu-AEEA-AEEA-γGlu-γGlu-C18 diacid])WLLST-OH)",45 h
4,"CC(C)C[C@H](NC(=O)[C@H](Cc1ccc(O)cc1)NC(=O)[C@H](CCCNC(=N)N)NC(=O)[C@H](CO)NC(=O)[C@H](Cc1ccc(O)cc1)NC(=O)[C@H](CC(=O)O)NC(=O)[C@H](CO)NC(=O)[C@@H](NC(=O)[C@H](Cc1ccccc1)NC(=O)[C@@H](NC(=O)CNC(=O)[C@H](CCC(N)=O)NC(=O)[C@H](CO)NC(=O)[C@@H](N)Cc1c[nH]cn1)[C@@H](C)O)[C@@H](C)O)C(=O)N[C@@H](CCC(=O)O)C(=O)N[C@@H](CO)C(=O)N[C@@H](CCCNC(=N)N)C(=O)N[C@@H](CCCNC(=N)N)C(=O)N[C@@H](C)C(=O)N[C@@H](CCC(N)=O)C(=O)N[C@@H](CCC(=O)O)C(=O)N[C@@H](Cc1ccccc1)C(=O)N[C@H](C(=O)N[C@@H](CCCCNC(=O)CC[C@H](NC(=O)CC[C@H](NC(=O)CC[C@H](NC(=O)CC[C@H](NC(=O)CCCCCCCCCCCCCCCCC(=O)O)C(=O)O)C(=O)O)C(=O)O)C(=O)O)C(=O)N[C@@H](Cc1c[nH]c2ccccc12)C(=O)N[C@@H](CC(C)C)C(=O)N[C@@H](CC(C)C)C(=O)N[C@@H](CO)C(=O)N[C@H](C(=O)O)[C@@H](C)O)C(C)C [Example 51, N^ε24-[(4S)-4-carboxy-4-[[(4S)-4-carboxy-4-[[(4S)-4-carboxy-4-[[(4S)-4-carboxy-4-(17-carboxyheptadecanoylamino)butanoyl]amino]butanoyl]amino]butanoyl]amino]butanoyl]-[Arg12,Glu15,Glu21,Lys24,Leu27,Ser28]-Glucagon] (H-HSQGTFTSDYSRYLESRRAQEFVK([γGlu-γGlu-γGlu-γGlu-C18 diacid])WLLST-OH)",45 h
5,"CC(C)C[C@H](NC(=O)[C@H](Cc1c[nH]c2ccccc12)NC(=O)[C@H](CCCCNC(=O)CC[C@H](NC(=O)CC[C@H](NC(=O)COCCOCCNC(=O)COCCOCCNC(=O)CC[C@H](NC(=O)CCCCCCCCCCCCCCCCC(=O)O)C(=O)O)C(=O)O)C(=O)O)NC(=O)[C@@H](NC(=O)[C@H](Cc1ccccc1)NC(=O)[C@H](CC(=O)O)NC(=O)[C@H](CCC(N)=O)NC(=O)[C@H](C)NC(=O)[C@H](CCCNC(=N)N)NC(=O)[C@H](CCCNC(=N)N)NC(=O)[C@@H](NC(=O)[C@H](CC(=O)O)NC(=O)[C@H](CC(C)C)NC(=O)[C@H](Cc1ccc(O)cc1)NC(=O)[C@H](CCCNC(=N)N)NC(=O)[C@H](CO)NC(=O)[C@H](Cc1ccc(O)cc1)NC(=O)[C@H](CC(=O)O)NC(=O)[C@H](CO)NC(=O)[C@@H](NC(=O)[C@H](Cc1ccccc1)NC(=O)[C@@H](NC(=O)CNC(=O)[C@H](CCC(N)=O)NC(=O)[C@H](CO)NC(=O)[C@@H](N)Cc1c[nH]cn1)[C@@H](C)O)[C@@H](C)O)[C@@H](C)O)C(C)C)C(=O)N[C@@H](CCC(=O)O)C(=O)N[C@@H](CO)C(=O)N[C@H](C(=O)O)[C@@H](C)O [Example 44, N^ε24-[(4S)-4-carboxy-4-[[(4S)-4-carboxy-4-[[2-[2-[2-[[2-[2-[2-[[(4S)-4-carboxy-4-(17-carboxyheptadecanoylamino)butanoyl]amino]ethoxy]ethoxy]acetyl]amino]ethoxy]ethoxy]acetyl]amino]butanoyl]amino]butanoyl]-[Arg12,Thr16,Lys24,Glu27,Ser28]-Glucagon] (H-HSQGTFTSDYSRYLDTRRAQDFVK([γGlu-γGlu-AEEA-AEEA-γGlu-C18 diacid])WLEST-OH)",45 h
6,"CC(C)C[C@H](NC(=O)[C@H](CC(=O)O)NC(=O)[C@H](CC(C)C)NC(=O)[C@H](Cc1ccc(O)cc1)NC(=O)[C@H](CCCNC(=N)N)NC(=O)[C@H](CO)NC(=O)[C@H](Cc1ccc(O)cc1)NC(=O)[C@H](CC(=O)O)NC(=O)[C@H](CO)NC(=O)[C@@H](NC(=O)[C@H](Cc1ccccc1)NC(=O)[C@@H](NC(=O)CNC(=O)[C@H](CCC(N)=O)NC(=O)[C@H](CO)NC(=O)[C@@H](N)Cc1c[nH]cn1)[C@@H](C)O)[C@@H](C)O)C(=O)N[C@@H](CCCNC(=N)N)C(=O)N[C@@H](CCCNC(=N)N)C(=O)N[C@@H](C)C(=O)N[C@@H](CCC(N)=O)C(=O)N[C@@H](CC(=O)O)C(=O)N[C@@H](Cc1ccccc1)C(=O)N[C@H](C(=O)N[C@@H](CCCCNC(=O)CC[C@H](NC(=O)CC[C@H](NC(=O)CC[C@H](NC(=O)CC[C@H](NC(=O)CCCCCCCCCCCCCCC(=O)O)C(=O)O)C(=O)O)C(=O)O)C(=O)O)C(=O)N[C@@H](Cc1c[nH]c2ccccc12)C(=O)N[C@@H](CC(C)C)C(=O)N[C@@H](CC(C)C)C(=O)N[C@@H](CO)C(=O)N[C@H](C(=O)O)[C@@H](C)O)C(C)C [Example 74, N^ε24-[(4S)-4-carboxy-4-[[(4S)-4-carboxy-4-[[(4S)-4-carboxy-4-[[(4S)-4-carboxy-4-(15-carboxypentadecanoylamino)butanoyl]amino]butanoyl]amino]butanoyl]amino]butanoyl]-[Arg12,Leu16,Lys24,Leu27,Ser28]-Glucagon] (H-HSQGTFTSDYSRYLDLRRAQDFVK([γGlu-γGlu-γGlu-γGlu-C16 diacid])WLLST-OH)",0 h
